This is an account of results in ChEMBL document CHEMBL4888484, “Replenishing the malaria drug discovery pipeline: Screening and hit evaluation of the MMV Hit Generation Library 1 (HGL1) against asexual blood stage Plasmodium falciparum ,using a nano luciferase reporter read-out” (2022).

Screen size: about 150,000 compounds; about 540 (0.36%) showed an effect of 50% or more. The list shows a part of the results.

The assay has as its system Plasmodium falciparum. Kind of assay: Primary screen in NF54 nanoGlo assay, in single point, at 2uM, 72h; a lower Z score goes with more inhibition. To be noted: timepoint 72 hour. In kind it is functional, Erythrocyte.
As for `CN1C[C@H]2CC[C@@H](C1)N(Cc1cnc(NCc3ccccc3)nc1)C2`, the “% Inhibition” value is recorded as 13% and the Z score is -2.09.
Taken in the same sequence, the figures for `C#CCOc1ccc(C(C)N[C@H](CO)C(C)C)cc1` (stereo partly specified) were -3% and 0.35.
In the case of `CN1C(=O)[C@]2(CC(=O)Nc3c2cnn3-c2nc3ccccc3s2)c2cc(F)ccc21`, the “% Inhibition” value is on record as -6% and the Z score is 0.73.
For the compound `CCOC(=O)N1CCC(NC(=O)c2cnccn2)CC1`, the “% Inhibition” value is -10% and the Z score came to 1.35.
For `CCOc1ccc(C2CC2N=C(N(C)C)N(C)C)cc1` (stereo unspecified), in that order: -11% and 1.26.
As to `O=C1N(c2ccccc2)Cc2nn(Cc3cccc(Cl)c3)c(=O)n21`, the “% Inhibition” value amounted to 6% and the Z score is reported as -1.22.
Regarding `COCCN1CC2(CCN(S(=O)(=O)c3ccc(F)cc3F)CC2)[C@H]1c1ccncc1`, the “% Inhibition” value is -7% and the Z score is recorded as 1.16.
Taken in the same sequence, the figures for `O=C(CCn1ccc2ccccc21)N1CCC[C@@H]1CO` were -1% and 0.17.
Taken in the same sequence, the figures for `CN1C[C@H](CNc2nnc(-c3ccccc3)s2)OCC1=O` were -15% and 2.53.
Taken in the same sequence, the figures for `Cc1cccc(NCCCc2nnc3ccccn23)n1` were -8% and 0.81.
Consider `Nc1ncccc1-c1nc2ncccc2o1`, for which the “% Inhibition” value is -4% and the Z score worked out at 0.59.
For `c1csc(-c2nc(CCn3cnc4ccccc43)no2)c1`, the “% Inhibition” value is on record as -2% and the Z score worked out at 0.27.
Taken in the same sequence, the figures for `CN(CCN1CCOC1=O)c1ccnc2c(F)cccc12` were -6% and 0.94.
Turning to `c1ccc(/C(=C(\c2ccccc2)c2ccncc2)c2ccncc2)cc1`, the “% Inhibition” value is on record as -7% and the Z score is reported as 0.87.
Taken in the same sequence, the figures for `COc1ccccc1CNC(=O)Cn1cc(OC)c(=O)cc1CO` were -10% and 1.3.
Taken in the same sequence, the figures for `Cc1ccc(NC(=O)C(=O)c2ccc[nH]2)c(Cl)c1` were -18% and 1.65.
With `CCn1c(=O)c(-c2noc(C(=O)NCCCN3CCOCC3)n2)nn(-c2ccc(C)cc2)c1=O`, the “% Inhibition” value was -3% and the Z score came out at 0.51.
For `CCCCN(C)S(=O)(=O)N1CC[C@H](CN2CCCCC2)C1`, in that order: -9% and 1.55.
Consider `O=C(NC[C@H]1CCCN(C(=O)c2ccc3nccn3c2)C1)c1ccccc1`, for which the “% Inhibition” value is -7% and the Z score was determined as 1.16.
For `O=C(NCc1ccccc1)c1cc(NC[C@H]2CCOC2)ccn1`, in that order: 11% and -2.15.
Turning to `O=C(NCc1cccnc1)[C@@H]1C[C@@H](O)CN1C1CCN(C(=O)c2ccccc2)CC1`, the “% Inhibition” value is recorded as 2% and the Z score is -0.24.
In the case of `CCc1csc(CN[C@@H](C)CCc2c[nH]c3ccccc23)n1`, the “% Inhibition” value was -14% and the Z score is recorded as 1.33.
Regarding `Cc1ccc(C(=O)N2Cc3c(C(=O)N4CCCC4)nn(C)c3C2)cn1`, the “% Inhibition” value is -14% and the Z score amounted to 1.77.
For `NC(=O)[C@@H]1CCCN1C(=O)c1c[nH]c2ccccc12`, in that order: -16% and 2.12.
Regarding `COc1cc2c(cc1OC)CN(C(=O)C1C3CCCCC31)CC2` (stereo unspecified), the “% Inhibition” value was 5% and the Z score was -0.59.
For the compound `Cc1nc(CNC(=O)N2CCC3CCCCC32)sc1C` (stereo unspecified), the “% Inhibition” value is -9% and the Z score amounted to 1.59.
Taken in the same sequence, the figures for `COc1ccc(-n2nc(C(=O)NCc3ccc(F)cc3)c(=O)n(Cc3cccc(OC)c3)c2=O)cc1` were -1% and 0.13.
With `Cc1ccc(-c2ccc(=O)n([C@@H](C)C(=O)N3CCc4ccccc43)n2)cc1`, the “% Inhibition” value turned out to be 0% and the Z score came out at 0.02.
Taken in the same sequence, the figures for `Cc1nc2cc(CNS(=O)(=O)c3ccc4c(c3)CCCO4)ccc2n1C1CC1` were -6% and 0.56.
For the compound `CC(=O)N[C@H]1CN(C(=O)c2cccc(S(N)(=O)=O)c2)C[C@@H]1C1CC1`, the “% Inhibition” value is -8% and the Z score came out at 1.4.
On to `CN(C(=O)CN1CCN(C(=O)c2cccc3cc[nH]c23)CC1)C1CCCCC1`, for which the “% Inhibition” value is -4% and the Z score came to 0.51.
`O=C(CCCn1cncn1)N1CCc2ncnc(N3CCCC3)c2CC1`: the “% Inhibition” value is on record as -11% and the Z score turned out to be 2.14.
With `Cc1cc2c(cc1C)N(S(=O)(=O)c1c(N)noc1C)CC2`, the “% Inhibition” value is -8% and the Z score turned out to be 1.03.
On to `COc1ccc(/N=C2\[C@@H](N3CCCCC3)C3(CCCCC3)C(=O)N2c2ccc(Cl)cc2)cc1`, for which the “% Inhibition” value was 1% and the Z score is listed as -0.11.
As for `CC(C)(C)OC(=O)CC1(NC[C@H](O)C(F)(F)F)CCOCC1`, the “% Inhibition” value was -5% and the Z score amounted to 0.6.
`CCOC(=O)c1cc(NS(=O)(=O)c2cccc3c2N=S=N3)c[nH]1`: the “% Inhibition” value is -2% and the Z score is reported as 0.38.
Taken in the same sequence, the figures for `Cn1cc(-c2cc(C(=O)N3CCC[C@H](C(F)(F)F)C3)c3ccccc3n2)cn1` were -7% and 1.07.
Turning to `CCOC(=O)c1c(S(=O)(=O)N2CCC[C@H](C(=O)NCc3ccc4c(c3)OCO4)C2)c(C)n(CC)c1C`, the “% Inhibition” value is listed as -23% and the Z score amounted to 2.13.
For `CC(C)(C)CCNCC1(S(C)(=O)=O)CCOCC1`, in that order: -10% and 1.97.
Taken in the same sequence, the figures for `Cc1noc(C)c1[C@@H](C)C(=O)Nc1cnccn1` were -9% and 0.81.
For `COc1ccc(CN(c2cc(C)nc3nc(C(F)(F)F)nn23)C2CC2)c(OC)c1`, in that order: 1% and -0.22.
Consider `COc1ccc(S(=O)(=O)c2cnc(N3CCc4ccccc4C3)nc2N)cc1Cl`, for which the “% Inhibition” value was 2% and the Z score was -0.34.
Taken in the same sequence, the figures for `CCC(NC(=O)c1cc(-c2ccsc2)n[nH]1)[C@H]1C[C@H](O)C1` (stereo partly specified) were -5% and 0.81.
Turning to `CC(C)(C)c1ccc(C(=O)C(=O)Nc2cc(N3CCOC3=O)ccc2F)cc1`, the “% Inhibition” value is listed as -6% and the Z score was found to be 0.72.
Taken in the same sequence, the figures for `Cc1cc(NC(=O)CC[C@@H](C)[C@H]2CC[C@H]3[C@@H]4CC[C@@H]5C[C@H](O)CC[C@]5(C)[C@H]4C[C@H](O)[C@]23C)n(C2CCS(=O)(=O)C2)n1` (stereo partly specified) were -15% and 1.68.
Taken in the same sequence, the figures for `CC1CN(Cc2csc(CC(=O)Nc3ccccc3)n2)C(C)CO1` (stereo unspecified) were -12% and 1.17.
Taken in the same sequence, the figures for `O=C(NCc1ccccc1)C1CCN(Cc2cc(C#CCO)cs2)CC1` were -12% and 1.72.
Take `O=C(OCc1cncs1)c1ccc(N2CCCC2)nc1`: the “% Inhibition” value is -12% and the Z score is listed as 1.95.
Regarding `COc1c(C)cnc(CNCc2c(C(C)C)nn(C)c2OC)c1C`, the “% Inhibition” value was -6% and the Z score is given as 0.82.
Regarding `CC1COCC(C)N1c1nn2cc(-c3ccccc3)nc2s1` (stereo unspecified), the “% Inhibition” value is on record as -14% and the Z score is listed as 1.95.
With `COc1cc(-c2c3c(=O)[nH]n(C(C)C)c3nc3[nH]c(=O)n(C)c23)ccc1OC(F)F`, the “% Inhibition” value is reported as -8% and the Z score is 1.49.
For `CC(C)(C)OC(=O)N[C@H]1CCCc2cn[nH]c21`, in that order: 4% and -0.5.
In the case of `CC(=O)N1CCC([C@@H]2CN(C(=O)c3ccc4ccccc4n3)C[C@H]2CO)CC1`, the “% Inhibition” value was found to be 8% and the Z score is on record as -0.96.
For `CN1CC2(C[C@H]1c1nnc(-c3ccccc3)o1)CN(C(=O)NC1CCCC1)C2`, in that order: -2% and 0.25.
Regarding `Cc1cn[nH]c1[C@H]1CCCN(S(=O)(=O)c2ccsc2)C1`, the “% Inhibition” value is given as -7% and the Z score came to 0.95.
For `COCCn1cncc1CNC(=O)c1ccc(C)nc1C`, in that order: -4% and 0.51.
Taken in the same sequence, the figures for `O=C(NS(=O)(=O)C1C[C@@H]2CC[C@H]1C2)c1cncc(Br)c1` (stereo partly specified) were -4% and 0.6.
`O=S(=O)(c1ccc2c(c1)CCCC2)N1CC2(C[C@H](N3CCCC3)CO2)C1`: the “% Inhibition” value is -5% and the Z score was 0.74.
For `CC(=O)c1ccccc1C(=O)N1C[C@H]2CC[C@@H](C1)N(Cc1ccccc1)C2`, the “% Inhibition” value turned out to be 5% and the Z score is on record as -0.78.
Taken in the same sequence, the figures for `O=C(CNC1CCCC1Cc1ccccc1)NC1CCOCC1` (stereo unspecified) were -1% and 0.11.
For `CC[C@@H](CCO)NC(=O)C1(C#N)CCCCC1`, in that order: 6% and -0.74.
For `CCc1cc(C(=O)N2CCN(C)CC2)nc2cc(-c3ccco3)nn12`, in that order: -4% and 0.59.
As to `CC(OC(=O)CC1CC2CCC1C2)C(=O)N1CCCc2ccccc21` (stereo unspecified), the “% Inhibition” value stood at 1% and the Z score is -0.15.
As for `CCOC(=O)CNC(=O)N1CCc2onc(-c3cccc4ccccc34)c2C1`, the “% Inhibition” value is listed as -4% and the Z score is given as 0.64.
As for `Cc1cc(F)c(C(=O)Nc2ccsc2C(N)=O)cc1F`, the “% Inhibition” value is listed as 26% and the Z score is recorded as -3.55.
Take `COC(=O)[C@@H](CC(C)C)NC(=O)Nc1ccccc1C(F)(F)F`: the “% Inhibition” value was -12% and the Z score was 2.25.
Taken in the same sequence, the figures for `Cc1cc(CN(C)c2cc(N3CCOCC3)ncn2)no1` were -9% and 1.11.
For `Cc1oncc1CN1C[C@@H](F)C[C@H]1CNC(=O)C1CCCN1C1CCCC1` (stereo partly specified), in that order: -6% and 0.9.
For `CC1CCN(C[C@H]2CCCN(C(=O)c3cc(O)ccn3)C2)CC1`, in that order: 2% and -0.4.
As for `COc1ccnc(CN2CCCCCCCC2=O)c1OC`, the “% Inhibition” value came out at 0% and the Z score was 0.
As to `C=CCOc1nc(OC)nc(N(C)C)n1`, the “% Inhibition” value is listed as 1% and the Z score is on record as -0.13.
On to `CCOc1ccc(Nc2c3c(nc4nc(-c5ccccc5)nn24)CCCC3)cc1`, for which the “% Inhibition” value is on record as -13% and the Z score was determined as 1.21.
Taken in the same sequence, the figures for `CCNC(=O)c1ccc(N[C@H]2CCN(Cc3csc(C)n3)C[C@@H]2O)nc1` were -6% and 1.13.
Taken in the same sequence, the figures for `Cn1cnnc1[C@@H]1CCCN1S(=O)(=O)c1cc(Cl)sc1Cl` were 2% and -0.33.
On to `COCC(C)(C)C(=O)NCc1nc2cnccc2s1`, for which the “% Inhibition” value is -13% and the Z score stood at 1.65.
For the compound `Cc1nc(NCc2ccc(Oc3ccccc3)o2)n(C)n1`, the “% Inhibition” value is given as 1% and the Z score is given as -0.16.
For `COCCc1ncc(-c2c(C)c(-c3cnn(C)c3)nc(N)c2C#N)cn1`, in that order: 0% and 0.
For `CCCNC(=O)N(Cc1ccc(F)cc1)Cc1cc(-c2ccc(C)cc2C)on1`, in that order: 8% and -1.6.
For `Cn1c(C(=O)N2CC[C@H](N)C2)ccc1-c1cccc(Br)c1`, in that order: 50% and -7.09.
In the case of `CCn1c(CN2CC[C@](CO)(c3ccccc3)C2)nc2ccccc21`, the “% Inhibition” value stood at 5% and the Z score is on record as -0.98.
Regarding `CCN(CC(=O)c1c(N)n(CC)c(=O)[nH]c1=O)c1ccccc1`, the “% Inhibition” value stood at 6% and the Z score is -0.77.
For `O=C1CCC2(CCN(C(=O)C(c3ccccc3)c3ccccc3)CC2)N1`, in that order: -8% and 1.08.
As to `CC(C)c1nnc(-c2coc(S(=O)(=O)N3CCOCC3)c2)o1`, the “% Inhibition” value is -13% and the Z score was determined as 1.7.
